According to PubChem BioAssay AID686978 (National Center for Advancing Translational Sciences (NCATS), 2013):
The campaign covered roughly 420,000 compounds. About 64,000 (15%) were called active. The shares of active, inactive and inconclusive entries below differ from those in the screen. Calls follow the shape of the dose curve; as a rule, active = well fitted inhibition curve with a large enough effect; inconclusive = small, poorly fitted or top-dose-only effect; inactive = flat fitted curve, though single readings scatter. Potencies of inconclusive entries are left out as doubtful fits.

Test: qHTS for Inhibitors of human tyrosyl-DNA phosphodiesterase 1 (TDP1): qHTS in cells in absence of CPT; also: nearly all actives have a fitted effect of over 55% in size
Settings: DT40 Tdp1-/- hTDP1 cells, no CPT, ATP luminescence, 48 h; activity change, negative = growth inhibition: at 46.2 µM (top of the series) unless noted
Outline: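 Seeded 400 DT40-hTDP1 cells/well (vehicle DMSO, no 20 nM CPT); pinned compounds; ≥48 hr at 37 °C; CellTiter-Glo luminescence as viability measure.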
% is scaled to controls: 0 for no effect and ±100 for the full control effect; potency is read from the fitted curve at half-maximal effect; tags tell the direction and shape of the fitted curve.

| SMILES | Potency | activity change, negative = growth inhibition |
| --- | --- | --- |
| COc1ccc(-c2csc(C(C)(O)c3ccccc3)n2)cn1 (stereo not drawn) | inconclusive [inhibitor, single point] |  |
| O=C(NCCc1ccccn1)c1cc(-c2ccc(Cl)c(Cl)c2Cl)nc2ccccc12 | active: 18.4 µM |  |
| Cc1cccc(N2CCN(C(=O)CC(NC(=O)c3ccccc3Cl)c3ccccc3)CC2)c1C (stereo not drawn) | inconclusive [inhibitor, single point] |  |
| CCS(=O)(=O)N1Cc2ccccc2CC1C(=O)Nc1cccc(OC)c1 (stereo not drawn) | inactive |  |
| CNc1ccc(Br)cc(C(=O)/C=C/c2cc(OC)ccc2OC)c1=O | active: 10.3 µM |  |
| CC(=O)C1=C(c2ccc(Cl)c(Cl)c2)N(C(C)=O)n2c(C)nnc2S1 | active: 4.11 µM |  |
| O=C1CN(C(=O)c2ccccc2F)C(c2ccccc2)c2cc(F)ccc2N1 (stereo not drawn) | inactive |  |
| O=C(Cc1cccc2ccccc12)Nc1ccc(N2CCOCC2)cc1 | inactive |  |
| CCN(CC)CCCNC(=O)Cn1nc(N2CCN(c3ccccc3OC)CC2)ccc1=O |  | inconclusive: -39.6% [inhibitor] |
| CCCCC(CCC(=O)NNC(=O)Cc1ccccc1)C(=O)O (stereo not drawn) | inactive |  |
| CN1C(=O)Cc2cc(S(=O)(=O)CCC(=O)Nc3ccccc3)ccc21 | inactive |  |
| C=C(C)C1CCC2(C(=O)O)CCC3(C)C(CCC4C5(C)C(C=O)C(O)C(C)(C)C5CCC43C)C12 (stereo not drawn) | inconclusive [inhibitor, single point] |  |
| CCN1C=C(Cc2ccc(OC)cc2)C2=C(C1)C(c1ccc(OC)cc1)C(C#N)=C(N)O2 (stereo not drawn) | active: 16.4 µM |  |
| CCCOc1ccc(C(=O)Nc2ccc(Cl)cn2)cc1 | inactive |  |
| COCCN(Cc1ccccc1)C(=O)Cc1ccc(OC)c(S(=O)(=O)N2CCOCC2)c1 | inconclusive [inhibitor, single point] |  |
| CCN(CC)C(=O)/C(=C/c1cn(S(=O)(=O)N(C)C)c2ccccc12)NC(=O)c1ccc(OC)cc1 | active: 20.6 µM |  |
| Cc1cccc(C)c1NC(=O)c1oc2c(c1C)-c1nn(Cc3ccccc3)cc1CC2 | active: 14.6 µM |  |
| CCOc1ccc(S(=O)(=O)N2CCN(C(=O)c3cccn3C)CC2)cc1 | active: 14.6 µM |  |
| Cc1cc(N2CCCCCC2)nc2ccc(F)cc12 | inactive |  |
| Clc1ccc2nc(-c3ccco3)c(Cc3ccccc3)n2c1 | inconclusive [inhibitor, single point] |  |
| Cc1[nH]c2ccccc2c1/C=N/Nc1nc(N2CCCCC2)nc(N2CCCCC2)n1 | inconclusive [inhibitor, single point] |  |
| O=C(Nc1ccccc1C(=O)N1CCOCC1)c1ccc(CSc2ccccc2)cc1 | inconclusive [inhibitor, partial curve] |  |
| CCCC(O)(c1ccc(Cl)cc1)C(CN1CCOCC1)c1ccc(Cl)cc1 (stereo not drawn) | inconclusive [inhibitor, single point] |  |
| COc1ccc(NC(=O)N(C)C[C@H]2Oc3ccc(NS(=O)(=O)c4ccc(F)cc4)cc3C(=O)N([C@H](C)CO)C[C@@H]2C)cc1 | inconclusive [inhibitor, single point] |  |

| SMILES | Potency | activity change, negative = growth inhibition |
| --- | --- | --- |
| COc1ccccc1Cc1c(C(C)(C)C)nc2ccc(C)cn12 | active: 9.2 µM |  |
| COc1ccc(C(C(=O)NC2CCCC2)N(Cc2cccnc2)C(=O)c2snc(C(N)=O)c2N)cc1 (stereo not drawn) | inactive |  |
| Cc1ccccc1NC(=O)Cc1c[nH]c2ccccc12 |  | inconclusive: -33.2% [inhibitor] |
| Cc1cc(O)c(C(C)C)cc1N=Cc1ccccc1O | active: 4.61 µM |  |
| COc1ccc(-c2c(C#Cc3ccsc3)c3cc(Br)ccc3n2C)cc1 | active: 20.6 µM |  |
| Cc1cccc(OCC(O)CN2CCNCC2)c1 (stereo not drawn) | inactive |  |
| Cc1ccc(Cl)cc1N1CCN(C(=O)c2ccc3c(c2)N(Cc2ccccc2F)C(=O)c2ccccc2S3(=O)=O)CC1 |  | inconclusive: -22.2% [inhibitor] |
| Cc1nc2c(C(=O)N(C)Cc3ccccc3)c[nH]n2c(=O)c1Cc1ccc(Cl)cc1 | inconclusive [inhibitor, single point] |  |
| Cc1cccc(OCC(=O)Nc2ccc3nc(C)sc3c2)c1 | inconclusive [inhibitor, partial curve] |  |
| Cc1ccc(CC2CC(=O)N(c3cc(Cl)ccn3)C2=O)cc1 (stereo not drawn) | inactive |  |
| CCCNC(=O)c1ccc2c(=O)c(O)c(-c3ccc(C)cc3)[nH]c2c1 | inconclusive [inhibitor, single point] |  |
| CC(C)(C)OC(=O)CNC(=O)c1[nH]cnc1C(=O)N[C@@H](Cc1ccccc1)C(=O)OCc1ccccc1 | inconclusive [inhibitor, single point] |  |
| NCCOc1ccccc1Cc1ccccc1 | inconclusive [inhibitor, single point] |  |
| Cc1ccc(S(=O)(=O)Nc2ccc3cc([N+](=O)[O-])ccc3c2[N+](=O)[O-])cc1 | active: 23.1 µM |  |
| CN(C)CCNc1ccc(-c2n[nH]c(=O)c3ccccc23)cc1[N+](=O)[O-] | inconclusive [inhibitor, partial curve] |  |
| CCCCOc1ccc(S(=O)(=O)N2CCN(c3ccccc3OCC)CC2)cc1 | inconclusive [inhibitor, single point] |  |
| CC(NC(=O)Cc1ccc(-c2ccccc2)cc1)c1ccccc1 (stereo not drawn) | inconclusive [inhibitor, partial curve] |  |
| Clc1ccc2c(N/N=C/c3ccc(Br)cc3)ccnc2c1 | inconclusive [inhibitor, single point] |  |
| COc1cc(C=O)ccc1OCC(=O)NC(C)(C)C | inconclusive [inhibitor, partial curve] |  |
| Cc1ccc(NS(=O)(=O)c2cn(C)c(=O)n(C)c2=O)c(C)c1 | inactive |  |
| C[C@](N)(COP(=O)(O)O)C(=O)O | inactive |  |
| O=C(C1CCC(=O)N(C2CCCCCC2)C1)N1CCN(c2ccccc2Cl)CC1 (stereo not drawn) | active: 20.6 µM |  |
| CCOC(=O)c1ccc(NC(=O)N2CCN(Cc3cccc(F)c3)CC2)cc1 | inactive |  |
| CC[C@@]12C(=O)N(c3ccccc3)C(=O)N1[C@H](c1ccc(Br)cc1)[C@@H]1C(=O)N(C(C)(C)C)C(=O)[C@@H]12 | inconclusive [inhibitor, single point] |  |
